# In all, about 33,000 sequences were measured (“E-score (-0.5 to 0.5)”: median about -0.012, highest 2% from about 0.29 on). This is one part of the list.
# Biological target: T1, Ybr033w (UniProt P38073)
# T1 sequence: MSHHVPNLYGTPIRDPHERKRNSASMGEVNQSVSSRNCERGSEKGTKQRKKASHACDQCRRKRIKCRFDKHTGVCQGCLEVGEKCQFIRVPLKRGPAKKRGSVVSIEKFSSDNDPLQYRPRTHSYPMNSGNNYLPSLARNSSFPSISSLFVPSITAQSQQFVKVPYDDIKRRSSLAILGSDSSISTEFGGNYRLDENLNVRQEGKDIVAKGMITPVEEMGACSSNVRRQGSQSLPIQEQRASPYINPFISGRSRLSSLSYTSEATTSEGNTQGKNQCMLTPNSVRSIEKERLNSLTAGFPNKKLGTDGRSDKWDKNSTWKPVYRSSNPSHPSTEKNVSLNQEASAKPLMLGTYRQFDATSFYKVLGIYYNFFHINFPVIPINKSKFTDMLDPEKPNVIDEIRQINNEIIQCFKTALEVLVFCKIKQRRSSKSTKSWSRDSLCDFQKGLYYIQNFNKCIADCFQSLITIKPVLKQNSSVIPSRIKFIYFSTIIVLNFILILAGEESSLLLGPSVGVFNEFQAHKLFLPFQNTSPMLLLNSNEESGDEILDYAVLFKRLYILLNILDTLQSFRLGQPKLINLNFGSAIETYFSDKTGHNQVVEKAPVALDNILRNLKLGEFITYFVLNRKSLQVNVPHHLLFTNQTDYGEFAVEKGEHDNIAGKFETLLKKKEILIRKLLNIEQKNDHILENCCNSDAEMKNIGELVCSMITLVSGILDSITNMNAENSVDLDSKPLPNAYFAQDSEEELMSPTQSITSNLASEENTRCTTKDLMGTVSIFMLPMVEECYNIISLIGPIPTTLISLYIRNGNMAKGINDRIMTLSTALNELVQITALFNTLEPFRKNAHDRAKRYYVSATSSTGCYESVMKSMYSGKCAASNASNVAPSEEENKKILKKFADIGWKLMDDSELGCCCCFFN
# Test: PBM E-score (8-mer binding enrichment) (E-score (-0.5 to 0.5)); higher = stronger / more preferred TF binding; most listed sequences are background and not binding sites
# Details: protein concentration: 200 nM; construct: GST-full length
# Procedure: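 Universal 'all 10-mer' protein binding microarrays (Agilent AMADID 015681) probed with GST-tagged S. cerevisiae TFs (full-length or DBD) made by in vitro transcription/translation (PURExpress), about 100-200 nM. Bound TF was detected with fluorescent anti-GST. Each ungapped 8-mer (which stands for itself and its reverse complement) is scored by the PBM enrichment score (E-score), a modified Wilcoxon-Mann-Whitney statistic from -0.5 to +0.5, computed with the Universal PBM Analysis Suite. Scale: above 0.35 generally sequence-specific binding.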
row,Sequence,PBM E-score
1,GTAGTCAA,0.0743
2,GGATAGCC,0.0115
3,GCCCCTAC,-0.258
4,AGTTAAAA,0.298
5,ACAAGGTA,0.0991
6,CCTCGAAG,0.0672
7,AGGTTATA,-0.0496
8,ATAAAGTC,0.149
9,GGCTTCAA,-0.038
10,CCGTAGTA,0.0986
11,GCTGAACA,-0.0139
12,ATACTGAT,0.209
13,CAGCCGGC,0.0044
14,CAGGGTAC,-0.158
15,AACCCGAT,0.0784
16,AGAAGGCT,-0.173
17,GGGAGTGA,0.0598
18,CTAACCAA,0.154
19,TACGGTAA,0.256
20,CAGCGCTA,-0.00056
21,CCTGACCC,-0.206
22,GACCCCTC,-0.227
23,GACCACAC,-0.0769
24,GCGCGCGC,0.334
25,GGCCCTAC,-0.256

row,Sequence,PBM E-score
1,CCTTCTCA,-0.0332
2,CTTTGTGA,0.113
3,AAAGAGTA,-0.0458
4,ACCCGGCC,-0.214
5,CGGAAGTC,-0.151
6,AGCTTTGA,0.196
7,CCTGAAAG,-0.0253
8,GATTGGTA,0.179
9,AGGCAACG,-0.117
10,ACATCACC,-0.216
11,CCATAAAA,0.0566
12,ACAATATG,0.199
13,CACTTACG,0.204
14,AACGCCTG,-0.136
15,AATATATT,0.411
16,CTTGAACC,0.132
17,GACAGCCA,-0.0433
18,TCACAGAA,0.149
19,ATCCCTTC,-0.012
20,ACTCTCCA,-0.207
21,AACGACGC,0.0128
22,CAACCCGC,-0.0124
23,CGCCCAAA,0.0399
24,CGCTGAAC,-0.0335
25,GCCAGTGA,-0.22

row,Sequence,PBM E-score
1,CTATACTC,-0.137
2,AGCCGCCC,-0.319
3,CTCGCGGC,-0.256
4,AGTCGCAC,-0.209
5,AATTCTTG,0.232
6,CGATTCCC,-0.0324
7,AGTGAGTG,-0.00539
8,ACAAAATA,0.168
9,CCGAACAG,-0.0132
10,CGTGTAGC,-0.137
11,GATGAATC,0.186
12,ACTCTAAC,0.17
13,GACCGCAC,-0.113
14,CTTATCGC,0.0477
15,TGGCACCA,-0.255
16,ACGGTTCC,-0.0979
17,ATTGTGGG,-0.107
18,GCAGTCCA,-0.029
19,AGCGCGAT,0.0558
20,GCTCCGAC,-0.259
21,ATTCTGCA,0.118
22,ATCTGGGC,-0.0818
23,ATGCGCCA,0.00426
24,AGACGTTC,0.00705
25,CCAAACCG,0.0166

row,Sequence,PBM E-score
1,GTCAAGAC,-0.0889
2,ACCTAAAG,0.00176
3,ATCGAAAT,0.119
4,CTGTAATC,-0.0614
5,AGAGATCA,-0.0351
6,ACGGAACT,0.0148
7,CAAGTTCG,-0.058
8,ATCGACTA,-0.0267
9,ACCCAAGG,-0.051
10,TAACGGGA,-0.0136
11,CAAGATGA,-0.0119
12,TATCAGCA,0.111
13,ATAATGGG,0.152
14,ATATGTAA,0.209
15,CAAGATAA,0.155
16,CGGACGAC,-0.253
17,ACTCCGTA,0.015
18,AGACCAGC,-0.253
19,CGCCGTTC,-0.167
20,ACGATCGG,-0.102
21,CCTGAGAC,-0.235
22,CATATATA,0.182
23,GAGCTACA,-0.0703
24,AGGGACCC,-0.346
25,AGTAAAGC,0.2

row,Sequence,PBM E-score
1,TCCTTTCA,0.106
2,AACAGGAC,-0.0938
3,AACCGCCG,-0.0082
4,AGACAATG,0.0738
5,AAATGCGC,0.0741
6,GTGCAATA,0.172
7,AACCGTTA,0.0172
8,GATAATGA,0.123
9,GACCCATA,-0.0357
10,AAGAAAGT,0.115
11,AGGTGTCC,-0.0803
12,ACTCTATA,0.065
13,CATCGTAA,0.134
14,ACTCACGC,-0.116
15,GGTCATCA,0.00449
16,AGGGAGAA,-0.114
17,CAACCAAA,0.0906
18,ACAAGTAG,0.0414
19,AACTCTAC,-0.0602
20,CCACTACA,0.152
21,CATTGCTA,0.132
22,CCTCTTAA,0.108
23,CCAATTCG,0.0116
24,ATTTCGCA,0.192
25,AAGGTCTG,-0.153

row,Sequence,PBM E-score
1,AGTAAGCC,-0.149
2,CGTAAGTA,0.126
3,AGATAAGC,0.0061
4,CTCACATC,-0.00306
5,CCCAAAGG,-0.251
6,CTAATATA,0.297
7,AAGACGCC,-0.095
8,AGGCCAGG,-0.0666
9,ATCAAAAG,0.176
10,GCCGTGCA,-0.0276
11,TAACTGGA,0.0793
12,GGCCTACC,-0.113
13,CCTAGGTC,-0.0537
14,ATGAGTAC,0.156
15,CCTCGTAC,0.0717
16,AACTTTTA,0.271
17,CCTCAAAA,0.123
18,GCTTTACC,0.0841
19,CTGTCAAG,-0.157
20,GGAACCCC,-0.258
21,CTGACAAG,0.0882
22,ACATCACA,0.197
23,AACTACTA,0.298
24,GCCGATTA,0.0749
25,GCGTCAGA,-0.15

row,Sequence,PBM E-score
1,ATTGCCCC,-0.164
2,CCAGGCCC,-0.325
3,CCTACTAC,0.0252
4,TCAATCGA,0.041
5,ATCCCAAA,0.13
6,AGAAACAG,-0.017
7,CAGAGTGG,-0.134
8,ACGTAGTG,-0.038
9,GATTACCA,0.0921
10,CATTAGGG,-0.0832
11,AAAGTAGT,0.114
12,AGACGCCT,-0.149
13,ACGGTGCC,-0.327
14,ACAAAGTC,0.0213
15,CAGATATC,0.0641
16,AGTGTCAA,-0.0622
17,ACTAGACT,-0.214
18,CCCGCACG,-0.0864
19,ACCTAGGT,-0.151
20,AGTGAAAA,0.183
21,CCGCTGAC,-0.192
22,GTATCGCA,-0.015
23,GAATCACC,0.136
24,CGGGACCG,-0.124
25,CGCAGTTA,0.119

row,Sequence,PBM E-score
1,ACTGGTCT,-0.135
2,AATAAGCC,-0.0887
3,ATGAGCAT,0.0956
4,CCGCCTGA,-0.172
5,CAGGTTTA,0.0674
6,AGCGATGA,-0.00395
7,TAAGACGA,0.0773
8,ATGAGAAA,0.127
9,GCGCACCC,-0.0579
10,GCCTGAAA,0.102
11,ACACACGG,-0.154
12,AACCGACC,-0.0894
13,GAATAACC,0.113
14,CAACGCAG,-0.243
15,ATGCTGAG,-0.308
16,GTAGCCGA,-0.0276
17,CACCTGCA,-0.21
18,GAACGTGA,0.0155
19,GCCTCGTA,-0.0209
20,ACAGACGC,-0.198
21,ACCCTTTC,-0.0654
22,GACGCTCC,-0.0801
23,CATGCTAA,-0.0297
24,GGGCGCCC,-0.148
25,CGTCGGAG,-0.0801

row,Sequence,PBM E-score
1,CTAATGCA,0.252
2,ATAAACCG,0.115
3,CACGTCTC,-0.106
4,GAGGGGCA,-0.347
5,GGAAGGTA,-0.174
6,GAGTAACC,0.0865
7,CAATGAGG,-0.14
8,AGTGCTAT,-0.0398
9,CAATAGGC,0.0941
10,CTGTATGC,-0.0853
11,GGGGGGAA,-0.239
12,GAAAGATC,-0.00374
13,CCAATGCA,0.0225
14,AGAGAAAC,0.0905
15,AGAACCCC,-0.237
16,CTGGGGCA,-0.337
17,TAACGTCA,0.132
18,GCGAGAAA,-0.0549
19,AACCGGCC,-0.18
